# According to the supplement of paper PMC10037445:
# “And” between values parts separate entries of the source, which are not always exact repeats. Equal values may be shown once. ± gives the standard deviation of the averaged measurements. Whole data set: some 2,900 compounds, median “IRF Lucia reporter activity, fold change vs agonist alone” near 0.9, cut for the highest 2% near 2.8. The list shows a part of the results.
# Tests used:
# RAW-Dual [1] = assay: IRF Lucia reporter activity, fold change vs agonist alone; higher = enhanced IRF activity; settings: agonist: MPLA (TLR4) […]
# In short: (§1)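 After 50 nL of library stock was delivered by pin tool to RAW-Dual macrophages (50,000 cells/well, DMEM, 384-well plates), a PRR agonist was added 1 h later and the plates were kept at 37 °C, 5% CO2. Twenty hours later, IRF was read from supernatant by QuantiLuc luminescence and NF-κB by QuantiBlue absorbance at 620 nm. Reporter activity is stated as fold change over agonist-alone wells. Wells with IncuCyte confluency under 70% of agonist controls in both mask sets were counted as cytotoxic.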
# RAW-Dual [2] = assay: IRF Lucia reporter activity, fold change vs agonist alone; cytotoxicity flag (confluency mask): not cytotoxic; higher = enhanced IRF activity
# In short: as §1
# RAW-Dual [3] = assay: IRF Lucia reporter activity, fold change vs agonist alone; cytotoxicity flag (confluency mask): cytotoxic (confluency <70% of control); higher = enhanced IRF activity
# In short: as §1
# [4] = library stock concentration (final ~1000-fold dilution): 10 mM, cytotoxicity flag (confluency mask): not cytotoxic
# [5] = agonist: 3'3'-cGAMP (STING) 10 ug/mL
# [6] = library stock concentration (final ~1000-fold dilution): 10 mM, cytotoxicity flag (confluency mask): cytotoxic (confluency <70% of control)
compound,measurement,setting,value
COC(=O)C1=C(C)NC(C)=C(C(=O)OCCN2CCN(C(c3ccccc3)c3ccccc3)CC2)C1c1cccc([N+](=O)[O-])c1 (centres undefined),IRF Lucia reporter activity,RAW-Dual [1]; [4],0.829
COC(=O)C1=C(C)NC(C)=C(C(=O)OCCN2CCN(C(c3ccccc3)c3ccccc3)CC2)C1c1cccc([N+](=O)[O-])c1 (centres undefined) (library stock concentration (final ~1000-fold dilution): 10 mM),IRF Lucia reporter activity,RAW-Dual [2]; [5],0.122
same,IRF Lucia reporter activity,RAW-Dual [2]; agonist: LPS (TLR4) 0.1 ug/mL,0.911
CCOc1nc2cccc(C(=O)OC(C)OC(=O)OC3CCCCC3)c2n1Cc1ccc(-c2ccccc2-c2nnn[nH]2)cc1 (centres undefined),IRF Lucia reporter activity,RAW-Dual [1]; [6],0.792
CCOc1nc2cccc(C(=O)OC(C)OC(=O)OC3CCCCC3)c2n1Cc1ccc(-c2ccccc2-c2nnn[nH]2)cc1 (centres undefined) (library stock concentration (final ~1000-fold dilution): 10 mM),IRF Lucia reporter activity,RAW-Dual [3]; [5],0.498
same,IRF Lucia reporter activity,RAW-Dual [3]; agonist: LPS (TLR4) 0.1 ug/mL,1.13
Cn1cc(CC(N)C(=O)O)c2ccccc21 (centres undefined) (library stock concentration (final ~1000-fold dilution): 2 mM),IRF Lucia reporter activity,RAW-Dual [2]; [5],0.96
same,IRF Lucia reporter activity,RAW-Dual [2]; agonist: LPS (TLR4) 0.1 ug/mL,0.943
Cc1ccccc1-c1cc(N2CCN(C)CC2)ncc1N(C)C(=O)C(C)(C)c1cc(C(F)(F)F)cc(C(F)(F)F)c1 (library stock concentration (final ~1000-fold dilution): 2 mM),IRF Lucia reporter activity,RAW-Dual [2]; [5],0.804
same,IRF Lucia reporter activity,RAW-Dual [2]; agonist: LPS (TLR4) 0.1 ug/mL,1.14
Cc1ccccc1-c1cc(N2CCN(C)CC2)ncc1N(C)C(=O)C(C)(C)c1cc(C(F)(F)F)cc(C(F)(F)F)c1,IRF Lucia reporter activity,"RAW-Dual [1]; library stock concentration (final ~1000-fold dilution): 2 mM, cytotoxicity flag (confluency mask): not cytotoxic",1.2
O=C(OC1CN2CCC1CC2)N1CCc2ccccc2C1c1ccccc1 (centres undefined) (library stock concentration (final ~1000-fold dilution): 10 mM),IRF Lucia reporter activity,RAW-Dual [3]; [5],0.542
same,IRF Lucia reporter activity,RAW-Dual [3]; agonist: LPS (TLR4) 0.1 ug/mL,1.81
O=C(OC1CN2CCC1CC2)N1CCc2ccccc2C1c1ccccc1 (centres undefined),IRF Lucia reporter activity,RAW-Dual [1]; [6],1.48
CC(C(=O)O)c1ccc2c(c1)Cc1cccnc1O2 (centres undefined),IRF Lucia reporter activity,RAW-Dual [1]; [4],0.957
CC(C(=O)O)c1ccc2c(c1)Cc1cccnc1O2 (centres undefined) (library stock concentration (final ~1000-fold dilution): 10 mM),IRF Lucia reporter activity,RAW-Dual [2]; [5],1.06
same,IRF Lucia reporter activity,RAW-Dual [2]; agonist: LPS (TLR4) 0.1 ug/mL,0.902
CC(C)(C)C(=O)Oc1ccc(S(=O)(=O)Nc2ccccc2C(=O)NCC(=O)O)cc1 (library stock concentration (final ~1000-fold dilution): 10 mM),IRF Lucia reporter activity,RAW-Dual [2]; [5],1.1 and 1.19
same,IRF Lucia reporter activity,RAW-Dual [2]; agonist: LPS (TLR4) 0.1 ug/mL,1.16 and 1.32
CC(C)(C)C(=O)Oc1ccc(S(=O)(=O)Nc2ccccc2C(=O)NCC(=O)O)cc1,IRF Lucia reporter activity,RAW-Dual [1]; [4],1.07
O=C(N/N=C/c1cc(O)c(O)cc1O)c1cc2ccccc2cc1O,IRF Lucia reporter activity,RAW-Dual [1]; [4],1.02
O=C(N/N=C/c1cc(O)c(O)cc1O)c1cc2ccccc2cc1O (library stock concentration (final ~1000-fold dilution): 10 mM),IRF Lucia reporter activity,RAW-Dual [2]; [5],0.396
same,IRF Lucia reporter activity,RAW-Dual [2]; agonist: LPS (TLR4) 0.1 ug/mL,0.944
COc1cc(O)c2c(c1)oc(=O)c1c3cc(O)c(O)cc3oc21 (library stock concentration (final ~1000-fold dilution): 10 mM),IRF Lucia reporter activity,RAW-Dual [2]; [5],0.343
same,IRF Lucia reporter activity,RAW-Dual [2]; agonist: LPS (TLR4) 0.1 ug/mL,0.684
N=C(N)Nc1nc(CSCCC(=N)NS(N)(=O)=O)cs1 (library stock concentration (final ~1000-fold dilution): 10 mM),IRF Lucia reporter activity,RAW-Dual [2]; [5],1.11
same,IRF Lucia reporter activity,RAW-Dual [2]; agonist: LPS (TLR4) 0.1 ug/mL,0.978
N=C(N)Nc1nc(CSCCC(=N)NS(N)(=O)=O)cs1,IRF Lucia reporter activity,RAW-Dual [1]; [4],0.972
O=C(/C=C/c1ccc2ccccc2n1)c1ccncc1,IRF Lucia reporter activity,RAW-Dual [1]; [4],0.162
O=C(/C=C/c1ccc2ccccc2n1)c1ccncc1 (library stock concentration (final ~1000-fold dilution): 10 mM),IRF Lucia reporter activity,RAW-Dual [2]; [5],0.164
same,IRF Lucia reporter activity,RAW-Dual [2]; agonist: LPS (TLR4) 0.1 ug/mL,0.307
Cc1cc(C(N)=O)ccc1-n1c(CCC(=O)O)ccc1-c1ccc(-n2ccnc2)cc1 (library stock concentration (final ~1000-fold dilution): 10 mM),IRF Lucia reporter activity,RAW-Dual [2]; [5],0.983
same,IRF Lucia reporter activity,RAW-Dual [2]; agonist: LPS (TLR4) 0.1 ug/mL,1.08
N=C(N)NCCCCC1NC(=O)CCSSCC(C(N)=O)NC(=O)C2CCCN2C(=O)C(Cc2c[nH]c3ccccc23)NC(=O)C(CC(=O)O)NC(=O)CNC1=O (centres undefined) (library stock concentration (final ~1000-fold dilution): 10 mM water),IRF Lucia reporter activity,RAW-Dual [2]; [5],1.52
same,IRF Lucia reporter activity,RAW-Dual [2]; agonist: LPS (TLR4) 0.1 ug/mL,1
CCOC(=O)/C=C\C(=O)OCC (library stock concentration (final ~1000-fold dilution): 10 mM),IRF Lucia reporter activity,RAW-Dual [2]; [5],0.722 ± 0.28
same,IRF Lucia reporter activity,RAW-Dual [2]; agonist: LPS (TLR4) 0.1 ug/mL,1.09 ± 0.084
CCOC(=O)/C=C\C(=O)OCC,IRF Lucia reporter activity,RAW-Dual [1]; [4],1.34 ± 0.59
Cc1n[nH]c2ccc(-c3cncc(OCC(N)Cc4ccccc4)c3)cc12 (centres undefined),IRF Lucia reporter activity,RAW-Dual [1]; [4],1.15
Cc1n[nH]c2ccc(-c3cncc(OCC(N)Cc4ccccc4)c3)cc12 (centres undefined) (library stock concentration (final ~1000-fold dilution): 10 mM),IRF Lucia reporter activity,RAW-Dual [2]; [5],1.03
same,IRF Lucia reporter activity,RAW-Dual [2]; agonist: LPS (TLR4) 0.1 ug/mL,0.0165
O=C(/C=C/c1ccc(O)c(O)c1)O[C@@H](C(=O)O)[C@@H](OC(=O)/C=C/c1ccc(O)c(O)c1)C(=O)O (library stock concentration (final ~1000-fold dilution): 10 mM),IRF Lucia reporter activity,RAW-Dual [2]; [5],1.18
same,IRF Lucia reporter activity,RAW-Dual [2]; agonist: LPS (TLR4) 0.1 ug/mL,1.37
Cc1ccc(-c2csc(NC(=O)c3ccccc3)n2)c(C)c1,IRF Lucia reporter activity,RAW-Dual [1]; [4],0.893
